Reference: paper PMC2390759
Results are given in words; binding and its absence hold for the method and conditions named. In cells and extracts the contact can be indirect. Some binding calls cover weakened binding; strength is not graded here.

Sequences of proteins named here, by UniProt entry; tags and fusion partners are left off. A change or cut given only in a name is not applied to a line headed by its entry. A line that says so, or that is headed by a name, gives the form on record, which may keep a tag or linker. Residues count along the entry.
UniProt P09405: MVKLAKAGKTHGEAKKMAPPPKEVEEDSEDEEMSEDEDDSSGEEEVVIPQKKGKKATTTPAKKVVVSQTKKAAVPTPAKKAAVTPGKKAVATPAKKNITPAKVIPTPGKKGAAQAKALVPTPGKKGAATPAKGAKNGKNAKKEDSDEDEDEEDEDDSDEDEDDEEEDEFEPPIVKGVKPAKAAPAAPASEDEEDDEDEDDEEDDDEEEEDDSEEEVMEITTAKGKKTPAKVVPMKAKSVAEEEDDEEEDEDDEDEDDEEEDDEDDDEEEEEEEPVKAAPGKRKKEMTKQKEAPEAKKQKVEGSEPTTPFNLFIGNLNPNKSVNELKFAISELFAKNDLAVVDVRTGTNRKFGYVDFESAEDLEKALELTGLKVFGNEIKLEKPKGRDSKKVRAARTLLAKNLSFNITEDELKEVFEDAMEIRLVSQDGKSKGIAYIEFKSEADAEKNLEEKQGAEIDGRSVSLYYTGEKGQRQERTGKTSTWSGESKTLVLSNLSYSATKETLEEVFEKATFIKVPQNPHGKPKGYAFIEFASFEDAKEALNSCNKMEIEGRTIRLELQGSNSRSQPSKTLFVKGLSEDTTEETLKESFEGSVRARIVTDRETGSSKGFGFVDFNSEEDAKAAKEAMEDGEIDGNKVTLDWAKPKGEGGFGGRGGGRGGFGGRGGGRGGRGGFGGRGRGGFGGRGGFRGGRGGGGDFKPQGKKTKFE
ErbB4-JMa-cyt1 (Q15303, residues 26-1308): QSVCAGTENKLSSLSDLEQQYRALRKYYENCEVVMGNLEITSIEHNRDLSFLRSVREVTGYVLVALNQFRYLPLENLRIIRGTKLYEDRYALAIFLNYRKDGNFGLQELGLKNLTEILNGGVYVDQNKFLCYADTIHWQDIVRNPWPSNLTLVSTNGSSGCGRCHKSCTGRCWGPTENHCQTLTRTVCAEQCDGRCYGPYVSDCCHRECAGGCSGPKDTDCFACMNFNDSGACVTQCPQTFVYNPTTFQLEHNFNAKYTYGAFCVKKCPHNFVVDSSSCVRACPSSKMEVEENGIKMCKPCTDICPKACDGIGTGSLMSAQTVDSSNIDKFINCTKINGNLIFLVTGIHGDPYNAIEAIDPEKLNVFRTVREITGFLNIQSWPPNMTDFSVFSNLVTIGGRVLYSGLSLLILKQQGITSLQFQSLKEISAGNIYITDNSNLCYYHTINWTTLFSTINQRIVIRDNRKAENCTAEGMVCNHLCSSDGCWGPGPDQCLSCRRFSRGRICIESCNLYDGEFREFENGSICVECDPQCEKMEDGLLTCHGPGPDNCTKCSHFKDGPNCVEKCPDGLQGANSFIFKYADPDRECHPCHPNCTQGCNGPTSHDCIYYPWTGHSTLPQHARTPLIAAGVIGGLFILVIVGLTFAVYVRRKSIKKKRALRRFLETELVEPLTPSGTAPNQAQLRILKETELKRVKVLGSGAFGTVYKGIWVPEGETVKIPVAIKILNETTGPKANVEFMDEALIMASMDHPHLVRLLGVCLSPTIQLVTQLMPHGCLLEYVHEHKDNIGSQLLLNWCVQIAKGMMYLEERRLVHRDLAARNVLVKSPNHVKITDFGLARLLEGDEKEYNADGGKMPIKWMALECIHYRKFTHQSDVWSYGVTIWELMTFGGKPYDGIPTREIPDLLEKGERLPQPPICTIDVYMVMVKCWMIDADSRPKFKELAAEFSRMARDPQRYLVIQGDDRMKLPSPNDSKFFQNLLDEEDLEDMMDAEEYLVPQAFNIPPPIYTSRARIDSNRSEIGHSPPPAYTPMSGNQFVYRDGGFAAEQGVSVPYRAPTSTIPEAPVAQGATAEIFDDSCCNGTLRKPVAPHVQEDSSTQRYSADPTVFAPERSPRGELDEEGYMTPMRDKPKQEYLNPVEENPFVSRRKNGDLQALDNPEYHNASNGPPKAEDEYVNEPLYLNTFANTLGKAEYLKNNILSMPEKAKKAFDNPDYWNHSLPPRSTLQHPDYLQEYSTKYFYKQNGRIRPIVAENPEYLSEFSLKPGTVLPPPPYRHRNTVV
ErbB4-JMa-cyt2 (Q15303, form named): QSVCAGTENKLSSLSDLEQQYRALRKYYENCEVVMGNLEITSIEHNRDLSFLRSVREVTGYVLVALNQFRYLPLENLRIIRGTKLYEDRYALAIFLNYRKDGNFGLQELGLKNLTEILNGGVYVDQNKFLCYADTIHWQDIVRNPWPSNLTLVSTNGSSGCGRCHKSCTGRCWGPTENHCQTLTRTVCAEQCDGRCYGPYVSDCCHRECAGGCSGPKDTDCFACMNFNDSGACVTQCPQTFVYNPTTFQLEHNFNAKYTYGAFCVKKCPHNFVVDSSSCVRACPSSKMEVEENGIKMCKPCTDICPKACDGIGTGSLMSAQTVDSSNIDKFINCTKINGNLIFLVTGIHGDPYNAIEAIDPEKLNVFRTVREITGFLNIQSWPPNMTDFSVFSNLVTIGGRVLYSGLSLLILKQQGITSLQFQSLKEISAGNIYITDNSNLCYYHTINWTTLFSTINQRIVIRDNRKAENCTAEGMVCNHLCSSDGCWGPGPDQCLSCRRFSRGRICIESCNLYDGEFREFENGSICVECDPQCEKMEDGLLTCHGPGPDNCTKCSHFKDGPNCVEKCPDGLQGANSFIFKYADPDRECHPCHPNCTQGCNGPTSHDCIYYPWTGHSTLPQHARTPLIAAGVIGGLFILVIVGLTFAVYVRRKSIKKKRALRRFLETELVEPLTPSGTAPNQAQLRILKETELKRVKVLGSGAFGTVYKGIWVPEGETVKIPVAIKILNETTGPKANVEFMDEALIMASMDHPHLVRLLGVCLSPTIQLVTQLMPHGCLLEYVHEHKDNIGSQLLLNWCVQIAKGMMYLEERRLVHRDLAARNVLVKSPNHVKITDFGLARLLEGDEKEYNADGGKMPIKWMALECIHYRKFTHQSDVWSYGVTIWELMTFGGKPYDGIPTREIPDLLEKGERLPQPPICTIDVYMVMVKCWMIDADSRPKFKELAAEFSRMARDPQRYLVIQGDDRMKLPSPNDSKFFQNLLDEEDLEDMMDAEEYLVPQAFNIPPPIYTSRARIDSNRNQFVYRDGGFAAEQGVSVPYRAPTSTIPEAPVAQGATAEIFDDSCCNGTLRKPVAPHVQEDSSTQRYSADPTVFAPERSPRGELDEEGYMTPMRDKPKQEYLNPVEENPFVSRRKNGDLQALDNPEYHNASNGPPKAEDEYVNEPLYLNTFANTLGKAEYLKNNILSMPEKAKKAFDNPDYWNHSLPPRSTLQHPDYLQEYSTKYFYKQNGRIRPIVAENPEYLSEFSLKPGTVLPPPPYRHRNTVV
ErbB4-JMb-cyt1 (Q15303, form named): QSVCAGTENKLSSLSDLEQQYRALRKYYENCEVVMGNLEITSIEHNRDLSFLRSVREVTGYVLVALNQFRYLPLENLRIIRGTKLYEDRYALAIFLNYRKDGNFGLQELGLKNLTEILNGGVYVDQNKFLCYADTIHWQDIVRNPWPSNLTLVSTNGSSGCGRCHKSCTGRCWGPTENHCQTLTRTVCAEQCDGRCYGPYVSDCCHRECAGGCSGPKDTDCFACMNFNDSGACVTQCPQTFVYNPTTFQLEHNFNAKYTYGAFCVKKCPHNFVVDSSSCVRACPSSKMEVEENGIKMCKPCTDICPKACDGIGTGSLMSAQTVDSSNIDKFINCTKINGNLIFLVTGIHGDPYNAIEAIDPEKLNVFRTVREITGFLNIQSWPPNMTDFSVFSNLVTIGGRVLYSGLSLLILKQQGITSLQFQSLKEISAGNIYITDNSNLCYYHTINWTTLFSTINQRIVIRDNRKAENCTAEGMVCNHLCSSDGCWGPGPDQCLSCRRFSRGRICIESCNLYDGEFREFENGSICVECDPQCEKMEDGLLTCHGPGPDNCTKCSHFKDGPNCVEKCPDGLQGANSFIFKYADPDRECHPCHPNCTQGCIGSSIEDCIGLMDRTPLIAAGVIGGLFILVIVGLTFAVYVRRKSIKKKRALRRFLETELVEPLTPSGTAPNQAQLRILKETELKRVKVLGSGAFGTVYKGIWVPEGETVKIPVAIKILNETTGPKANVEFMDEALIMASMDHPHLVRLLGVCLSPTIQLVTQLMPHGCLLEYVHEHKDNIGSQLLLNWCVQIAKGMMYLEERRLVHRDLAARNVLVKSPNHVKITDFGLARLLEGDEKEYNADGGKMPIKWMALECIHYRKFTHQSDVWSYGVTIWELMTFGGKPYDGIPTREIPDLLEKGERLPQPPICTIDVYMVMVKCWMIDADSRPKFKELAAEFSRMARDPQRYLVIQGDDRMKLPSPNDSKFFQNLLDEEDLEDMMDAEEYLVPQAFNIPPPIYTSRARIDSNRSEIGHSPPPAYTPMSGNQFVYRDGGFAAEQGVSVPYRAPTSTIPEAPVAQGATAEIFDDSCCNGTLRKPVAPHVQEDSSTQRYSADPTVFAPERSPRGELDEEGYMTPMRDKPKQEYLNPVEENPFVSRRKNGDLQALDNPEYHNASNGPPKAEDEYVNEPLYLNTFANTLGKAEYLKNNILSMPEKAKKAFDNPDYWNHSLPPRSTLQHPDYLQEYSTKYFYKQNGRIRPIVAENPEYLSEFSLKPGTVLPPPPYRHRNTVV
ErbB4-JMb-cyt2 (Q15303, form named): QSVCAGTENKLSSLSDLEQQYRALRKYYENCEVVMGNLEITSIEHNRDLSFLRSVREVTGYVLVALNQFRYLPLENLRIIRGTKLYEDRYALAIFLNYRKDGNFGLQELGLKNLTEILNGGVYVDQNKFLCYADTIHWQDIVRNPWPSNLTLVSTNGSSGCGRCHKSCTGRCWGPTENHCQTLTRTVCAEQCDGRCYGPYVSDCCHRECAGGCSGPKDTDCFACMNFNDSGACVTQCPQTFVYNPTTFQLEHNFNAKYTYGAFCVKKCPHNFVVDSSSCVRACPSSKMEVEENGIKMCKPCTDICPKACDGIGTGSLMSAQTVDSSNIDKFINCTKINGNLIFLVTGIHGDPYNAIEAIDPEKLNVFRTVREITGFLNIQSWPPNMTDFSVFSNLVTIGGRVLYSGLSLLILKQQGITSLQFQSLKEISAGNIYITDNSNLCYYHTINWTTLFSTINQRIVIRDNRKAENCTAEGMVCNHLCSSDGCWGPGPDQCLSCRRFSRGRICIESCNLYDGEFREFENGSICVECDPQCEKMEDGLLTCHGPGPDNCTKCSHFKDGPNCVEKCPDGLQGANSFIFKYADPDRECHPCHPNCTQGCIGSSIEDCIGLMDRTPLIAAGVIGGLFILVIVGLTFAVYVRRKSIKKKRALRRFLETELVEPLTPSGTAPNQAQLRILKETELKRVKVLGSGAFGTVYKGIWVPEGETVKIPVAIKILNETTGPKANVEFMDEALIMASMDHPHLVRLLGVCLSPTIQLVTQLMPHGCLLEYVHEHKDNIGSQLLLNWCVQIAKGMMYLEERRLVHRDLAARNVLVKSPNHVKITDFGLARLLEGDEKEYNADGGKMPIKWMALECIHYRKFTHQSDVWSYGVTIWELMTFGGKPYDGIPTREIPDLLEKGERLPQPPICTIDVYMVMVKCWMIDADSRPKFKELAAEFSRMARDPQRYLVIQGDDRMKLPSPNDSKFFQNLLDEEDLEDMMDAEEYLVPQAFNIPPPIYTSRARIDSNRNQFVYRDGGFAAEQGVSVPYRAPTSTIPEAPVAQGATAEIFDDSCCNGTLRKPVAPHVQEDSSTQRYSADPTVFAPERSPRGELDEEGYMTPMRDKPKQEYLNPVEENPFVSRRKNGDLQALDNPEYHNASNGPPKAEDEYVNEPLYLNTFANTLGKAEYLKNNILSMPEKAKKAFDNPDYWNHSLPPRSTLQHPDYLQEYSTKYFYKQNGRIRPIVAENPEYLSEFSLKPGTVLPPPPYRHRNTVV
UniProt P19338: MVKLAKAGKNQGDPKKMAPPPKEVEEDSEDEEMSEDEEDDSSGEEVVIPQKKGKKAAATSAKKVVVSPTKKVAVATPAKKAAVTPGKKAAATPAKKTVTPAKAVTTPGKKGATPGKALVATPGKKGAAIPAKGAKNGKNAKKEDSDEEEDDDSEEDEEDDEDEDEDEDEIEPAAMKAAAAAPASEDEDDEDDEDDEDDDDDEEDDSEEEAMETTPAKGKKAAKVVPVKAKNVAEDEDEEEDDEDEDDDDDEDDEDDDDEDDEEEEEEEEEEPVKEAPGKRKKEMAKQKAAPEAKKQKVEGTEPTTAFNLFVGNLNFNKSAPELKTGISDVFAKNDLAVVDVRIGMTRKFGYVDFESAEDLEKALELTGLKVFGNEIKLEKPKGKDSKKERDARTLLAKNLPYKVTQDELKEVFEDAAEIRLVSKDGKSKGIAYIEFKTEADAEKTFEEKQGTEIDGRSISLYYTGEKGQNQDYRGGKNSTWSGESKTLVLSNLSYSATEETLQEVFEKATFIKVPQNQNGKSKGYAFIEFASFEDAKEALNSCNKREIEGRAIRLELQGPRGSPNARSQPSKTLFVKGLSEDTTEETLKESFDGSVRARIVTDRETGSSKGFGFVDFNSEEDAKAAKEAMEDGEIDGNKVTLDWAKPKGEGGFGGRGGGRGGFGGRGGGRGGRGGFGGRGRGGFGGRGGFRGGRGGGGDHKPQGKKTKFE

Experiments:
[1] = target: C-terminally Myc-tagged mouse nucleolin (mouse) (UniProt P09405); assay: co-IP; COS7 co-transfected; total membrane (pellet, insoluble) fraction immunoprecipitated with anti-Myc (nucleolin) or anti-HA (control), blotted with specific ErbB antibodies
[2] = target: C-terminally Myc-tagged mouse nucleolin (mouse) (UniProt P09405); assay: co-IP; COS7 co-transfected; cell lysates immunoprecipitated with anti-Myc, blotted with anti-ErbB4; 2 h at 4°C, washed with HNTG
Myc-TGFβIIR = Myc-TGFβIIR (UniProt P37173); assay: as above
ErbB4-JMa-cyt1 = ErbB4-JMa-cyt1 (UniProt Q15303); assay: co-IP; COS7 co-transfected with ErbB4 isoforms and Myc-GFP-Nucleolin; cell lysates immunoprecipitated with anti-ErbB4, blotted with anti-GFP or anti-Myc
ErbB4-JMa-cyt2 = ErbB4-JMa-cyt2 (UniProt Q15303); assay: as above
ErbB4-JMb-cyt1 = ErbB4-JMb-cyt1 (UniProt Q15303); assay: as above
ErbB4-JMb-cyt2 = ErbB4-JMb-cyt2 (UniProt Q15303); assay: as above
[3] = target: endogenous nucleolin of SKBR3 breast cancer cells (human (endogenous in SKBR3)) (UniProt P19338); assay: co-IP; SKBR3 cell lysates, endogenous proteins; immunoprecipitated with anti-nucleolin or anti-ErbB2, blotted with anti-ErbB2 or anti-nucleolin

With “ErbB1 (from UniProt P00533 25-1210) (receptor)” the binding [1] was “binds”.
With “ErbB2 (from UniProt P04626 23-1255) (receptor)” the binding [1] was “binds”.
For “ErbB3 (from UniProt P21860 20-1342) (receptor)”, the binding [1] was “binds”.
With “ErbB4 (expression vector, isoform not named) (from UniProt Q15303 26-1308) (receptor)” the binding [2] was “binds”, the binding (Myc-TGFβIIR) was “no binding” and the binding [1] was “binds”.
With “GFP-fused Nucleolin-Myc (from UniProt P09405 1-707)” the binding (ErbB4-JMa-cyt1) was “binds”, the binding (ErbB4-JMa-cyt2) was “binds” and the binding (ErbB4-JMb-cyt1) was “binds”. For the same substance, the binding (ErbB4-JMb-cyt2) was “binds”.
For “endogenous ErbB2 of SKBR3 breast cancer cells (from UniProt P04626 23-1255) (receptor)”, the binding [3] was “binds”.
